Experimental data from PubChem BioAssay AID1671194 (National Center for Advancing Translational Sciences (NCATS), 2021).
Out of some 140,000 compounds screened, about 240 (0.17%) were called active. Inconclusive means that the source gave no clear call. Such entries were picked first, then a sample of the others. The call rests on the fitted dose curve; in most records, active means well fitted inhibition curve with a large enough effect; inconclusive means small, poorly fitted or top-dose-only effect; inactive means no such curve, though single readings can be large or run the other way. A potency beside an inconclusive call is a rough fit, not a confirmed value.

Experiment: Primary qHTS assay for inhibitors of alpha-synuclein gene (SNCA) expression; further: nearly all actives have a fitted effect of over 45% in size
Conditions: HEK-293 SNCA-luciferase knock-in, luminescence, 24 h; series mostly up to 57.2 µM
Potency means the concentration at half of the fitted maximal effect; tags describe the fitted curve by direction and shape.

Structure (SMILES)	Potency
NCCc1nnc(SCc2ccc(Cl)cc2)o1	inconclusive: 39.8 µM [inhibitor, partial curve, poor fit]
CNC(=O)[C@@H]1CN(S(=O)(=O)c2ccc(F)c(C)c2)C[C@H]1C1CCN(C)CC1	inconclusive: 22.4 µM [inhibitor, single point]
O=C(NCC1CCCO1)c1csc(N2CCN(c3ccc(Cl)cc3)CC2)n1 (centres undefined)	inconclusive: 3.16 µM [inhibitor, full curve]
CN(c1ccc(C(=O)N2CCn3nc(CO)cc3C2)cc1)S(C)(=O)=O	inconclusive: 0.708 µM [inhibitor, single point]
O=C(NC1CCCC1)N1CCC(c2noc(-c3cccnc3)n2)C1 (centres undefined)	inconclusive: 7.94 µM [inhibitor, single point]
CCCc1nc(-c2nc(C3CCOC3)no2)cs1 (centres undefined)	inactive
O=C1[C@H]2CN(Cc3ccc(Cl)cc3)C[C@H]2C(=O)N1CCc1ccccc1	inconclusive: 0.631 µM [inhibitor, full curve, poor fit]
CCc1cc(=O)n(CC(=O)N2CCN(c3ccc(OC)cc3)CC2)c(N2CCOCC2)n1	inconclusive: 4.47 µM [inhibitor, full curve, poor fit]
CCN(CC)C(=O)NCc1cccnc1N1CCN(c2ccccn2)CC1	inconclusive: 35.5 µM [inhibitor, single point]
CC(C)NC(=O)c1nc(-c2ccsc2)c2cnccn12	inactive
Cc1nnc(NC(=O)c2nc(S(=O)(=O)Cc3ccccc3)ncc2Cl)s1	inconclusive: 28.2 µM [inhibitor, single point]
O=C([C@@H]1C[C@H](F)CN1C(=O)Nc1cccc(C(F)(F)F)c1)N1CCc2ccccc2C1	inconclusive: 22.4 µM [inhibitor, partial curve, poor fit]
COc1ccc(C)cc1NC(=O)N1CCCC2(C1)Nc1cccnc1NC2=NC1CCCC1 (centres undefined)	inconclusive: 39.8 µM [inhibitor, single point]
Cc1ccc2nc(-c3ccccn3)c(Nc3ccc(F)cc3)n2c1	inconclusive: 12.6 µM [inhibitor, partial curve, poor fit]
O=C(CCc1ccc(-c2cccs2)o1)NC[C@@H]1C[C@H](F)CN1	inconclusive: 22.4 µM [inhibitor, partial curve, poor fit]
CC1(NC(=O)C2CC2)CN(c2ccc(Oc3ccccc3)cc2)C1	inactive
CCN1c2cc(C(=O)N3CCN(c4cccc(C)c4)CC3)ccc2C(=O)N2CCCCC21 (centres undefined)	inconclusive: 17.8 µM [inhibitor, single point]
C=CCNC(=O)N[C@H]1[C@H](O)[C@@H](N2CCN(C(C)=O)CC2)[C@@H]2OC[C@H]1O2	inconclusive: 56.2 µM [inhibitor, single point]
CCCc1nnc(NC(=O)c2nc(S(=O)(=O)Cc3ccc(C)cc3)ncc2Cl)s1	active: 5.01 µM
COCCOC1CCOC2(CCN(C(=O)c3ccc(OC)nc3)CC2)C1 (centres undefined)	inactive
Cc1cc2ncc(C(=O)NCc3cccnc3)cn2n1	inconclusive: 3.55 µM [inhibitor, full curve, poor fit]
COCCN1Cc2ccc(NCc3ccccc3)nc2C(C)(C(=O)Nc2ccccc2)C1 (centres undefined)	inconclusive: 56.2 µM [inhibitor, single point]

Structure (SMILES)	Potency
CCOCC1(C)COc2ccc(C(=O)Nc3cccnc3)cc2N1 (centres undefined)	inactive
CC(=O)c1ccc(NC(=O)N[C@H]2C[C@@](O)(C(=O)N[C@H](Cc3ccccc3)C(N)=O)C[C@@H](O)[C@@H]2O)cc1	inconclusive: 10 µM [inhibitor, partial curve, poor fit]
O=C1Nc2ccccc2CC12CCCN2Cc1ccc(C(F)(F)F)cc1 (centres undefined)	inconclusive: 28.2 µM [inhibitor, single point]
Cn1c(=O)n(C)c2cc(S(=O)(=O)Nc3ccccc3C(=O)O)ccc21	inconclusive: 0.178 µM [inhibitor, partial curve, poor fit]
COc1ccccc1-c1cccc(C(=O)N2CCC[C@H]2C(=O)NCc2cccc(C(F)(F)F)c2)c1	inactive
O=C(c1ccccc1)N1CCNc2cnc(Nc3cccc(C(F)(F)F)c3)nc2C1	inconclusive: 50.1 µM [inhibitor, partial curve, poor fit]
Fc1ccc(CNc2ncnc3c2c(-c2ccccc2)cn3-c2ccccc2)cc1	inconclusive: 39.8 µM [inhibitor, single point]
COc1ncccc1-c1nc2cc(C(=O)NCc3cccc(C(F)(F)F)c3)ccc2o1	inactive
O=C1c2cnc(-c3ccccc3)nc2OCCN1Cc1ccc(F)cc1F	inactive
Cc1noc(C)c1-c1cc2c(cc(-c3ccccc3)n2C)c(-c2ccnn2C)n1	inactive
CC(=O)SC1CC2=CC(=O)CC[C@]2(C)C2CC[C@@]3(C)C(CC[C@@]34CCC(=O)O4)C12 (some centres undefined)	inconclusive: 20 µM [inhibitor, partial curve, poor fit]
COCC1CN(C)CC12CCN(C(=O)CCCc1ccccc1)CC2 (centres undefined)	inactive
CC(C)(C)C1CCc2nc(NC(=O)Cc3ccc(Cl)cc3)sc2C1 (centres undefined)	inconclusive: 25.1 µM [inhibitor, single point]
O=C(Cc1ccccc1)NC1CCCc2c1[nH]c1ccccc21 (centres undefined)	inactive
Cc1noc(C)c1[S+](=O)([O-])N1CCCC2(COc3ccccc3C(=O)N2)C1 (centres undefined)	inconclusive: 39.8 µM [inhibitor, single point]
CCn1nccc1C(=O)N1CC(N(Cc2cccnc2)CC(C)C)C1	inconclusive: 6.31 µM [inhibitor, single point]
CCC1CN(Cc2nc(-c3ccc(OC)cc3F)oc2C)CCN1C(C)C (centres undefined)	inactive
O=C(COc1ccc(F)cc1)N1CCN(C(=O)c2nnn3c2COC(c2ccc(Cl)cc2)C3)CC1 (centres undefined)	inconclusive: 10 µM [inhibitor, partial curve, poor fit]
Cc1ncsc1CN1CCC(N2C(=O)C(OCC3CC3)C23CCCCC3)CC1 (centres undefined)	inactive
COc1ccc(N2C(=O)CS(=O)(=O)C23C(=O)N(Cc2ccc(F)cc2)c2ccc(C)cc23)cc1 (centres undefined)	inconclusive: 1 µM [inhibitor, partial curve, poor fit]
O=C(c1ccc(F)cc1)N1CCc2nc(C3CC3)nc(-c3ccc(O)cc3)c2CC1	inactive
CC(=O)N1CCCn2nc(C)c(-c3ccccc3OCc3ccccc3)c21	inactive

Structure (SMILES)	Potency
COc1ccc(OCC2(C)COc3ccc(C(=O)Nc4cccnc4)cc3N2)cc1 (centres undefined)	inconclusive: 31.6 µM [inhibitor, partial curve, poor fit]
CC(CNC(=O)CN1C(=O)COc2ccc(S(=O)(=O)N3CCCCCC3)cc21)c1ccccc1 (centres undefined)	inconclusive: 3.98 µM [inhibitor, single point]
COc1ccc(CCNC(=O)c2cccc(-n3cnc4cccnc43)c2C)cc1OC	inconclusive: 1 µM [inhibitor, full curve, poor fit]
COc1ccc(Cl)cc1C(=O)N1CCCN(c2cc(-c3ccc(Br)cc3)[nH]n2)CC1	inconclusive: 39.8 µM [inhibitor, single point]
COC(=O)CNC(=O)NCCc1ncc(C)n1C1CCCCCC1	inconclusive: 11.2 µM [inhibitor, partial curve]
Cc1noc(-c2nc(Cc3cccc(F)c3)no2)n1	inconclusive: 3.16 µM [inhibitor, single point]
C[C@@H]1CN(C(=O)c2ccc(Cn3cnnn3)cc2)CC[C@@]1(O)C1CCOCC1	inconclusive: 7.08 µM [inhibitor, single point]
CC(C)c1nc2ccc(C(=O)NCCCN3CCN(c4cccc(Cl)c4)CC3)cc2o1	inactive
CCOc1ccc(CCNC(=O)c2nc(-c3cccc(F)c3)n3c2CCCCC3)cc1OCC	inconclusive: 39.8 µM [inhibitor, single point]
Cc1cccc(OCC(=O)c2ccc3c(c2)N(C(C)C(=O)NCC2CCCO2)C(=O)CO3)c1C (centres undefined)	inactive
Cc1[nH]c2ccccc2c1C(c1ccccc1)c1ccc(Cl)s1 (centres undefined)	inconclusive: 39.8 µM [inhibitor, single point]
CCc1ccc(CN(Cc2ccco2)c2cnc(S(C)(=O)=O)nc2C(=O)Nc2c(C)cccc2C)cc1	inconclusive: 2 µM [inhibitor, single point]
O=C([C@@H]1C[C@H](F)CN1S(=O)(=O)c1ccccc1F)N1CCc2ccccc2C1	inconclusive: 39.8 µM [inhibitor, single point]
CN(C)C[C@@H]1CN(c2ncccn2)C[C@H]1NC(=O)c1ccc2cc[nH]c2c1	inconclusive: 11.2 µM [inhibitor, partial curve]
Cn1nccc1CN1CCCC2(COc3ccccc3C(=O)N2)C1 (centres undefined)	inconclusive: 56.2 µM [inhibitor, single point]
Cc1ccccc1CNc1nc(N(C)C)nc2c1cnn2C	inconclusive: 0.631 µM [inhibitor, full curve, poor fit]
Cc1ccc(NC(=O)C2CCN(S(=O)(=O)c3ccc4[nH]c(=O)ccc4c3)CC2)cc1C	inconclusive: 5.01 µM [inhibitor, full curve]
CCCCOc1ccc(C(=O)NCCc2sc(-c3ccc(OC)c(OC)c3)nc2C)cc1	inconclusive: 39.8 µM [inhibitor, single point]
Cc1nc(CN2C(=O)OC3(CCN(Cc4ccc(C(C)C)cc4)CC3)C2(C)c2ccccc2)cs1 (centres undefined)	inconclusive: 39.8 µM [inhibitor, single point]
Cc1ccc(-c2nnc(SCC(=O)c3ccc(Cl)cc3)n2-c2ccccc2)cc1	inconclusive: 31.6 µM [inhibitor, single point]
